Measurements taken from the supplement of paper PMC12645437, “Orthogonal IMiD-Degron Pairs Induce Selective Protein Degradation in Cells” (ACS Chemical Biology, 2025).
Some of the results follow.

target: no compound (DMSO); assay: log2 fold change of degron read counts, EGFP-low vs EGFP+ sorted cells; higher = lower degron-EGFP level without compound (poor expression or instability); settings: compound: DMSO control; 18 h
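Note: jurkat cells carrying a lentiviral library of mutant zinc finger degrons fused to EGFP plus mCherry, mCherry+ cells FACS sorted, degron abundance counted by next-generation sequencing.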

| Sequence | log2 fold change of degron read counts |
| --- | --- |
| FICPVCGACFTQKGNLLRHIKL | -0.103 |
| FECDQCGATFTQKGNLLRHIKL | -2.61 |
| FMCPICGRWFTQKGNLLRHIKL | 0.836 |
| FVCNVCGALFTQKGNLLRHIKL | -0.514 |
| FSCPICGRVFTQKGNLLRHIKL | 0.176 |
| FKCEICGREFTQKGNLLRHIKL | -2.54 |
| FQCPICGHNFTQKGNLLRHIKL | -0.885 |
| LKCEICGFACTQKGNLLRHIKL | -0.203 |
| FCCNICGAWFTQKGNLLRHIKL | 0.334 |
| FSCNVCGAHFTQKGNLLRHIKL | -0.994 |
| FLCDICGAVFTQKGNLLRHIKL | -0.593 |
| FCCPQCGASFTQKGNLLRHIKL | -2.03 |
| FLCEICGANFTQKGNLLRHIKL | -1.09 |
| LGCEICGFNCTQKGNLLRHIKL | 0.307 |
| FDCPQCGAVFTQKGNLLRHIKL | -1.51 |
| LQCPICGFECTQKGNLLRHIKL | -0.423 |
| FCCNVCGANFTQKGNLLRHIKL | -0.718 |
| FACNQCGAWFTQKGNLLRHIKL | 0.527 |
| FMCDVCGAPFTQKGNLLRHIKL | -0.813 |
| FWCEICGAFFTQKGNLLRHIKL | 0.962 |
| FLCPQCGALFTQKGNLLRHIKL | 0.204 |
| FICEQCGAQFTQKGNLLRHIKL | -1.8 |
| FKCPICGRYFTQKGNLLRHIKL | -0.281 |
| FKCEICGARFTQKGNLLRHIKL | -0.117 |
| FLCEICGREFTQKGNLLRHIKL | -0.825 |

| Sequence | log2 fold change of degron read counts |
| --- | --- |
| FECEICGRGFTQKGNLLRHIKL | -2.16 |
| FSCEICGHIFTQKGNLLRHIKL | -1.41 |
| FRCNQCGRTFTQKGNLLRHIKL | -0.156 |
| FYCNQCGHKFTQKGNLLRHIKL | 0.372 |
| FECDQCGAPFTQKGNLLRHIKL | -2.27 |
| FSCPQCGATFTQKGNLLRHIKL | -1.02 |
| FVCDVCGASFTQKGNLLRHIKL | -1.92 |
| FHCEICGASFTQKGNLLRHIKL | -2.72 |
| FDCNVCGANFTQKGNLLRHIKL | -1.44 |
| FLCDVCGAPFTQKGNLLRHIKL | -0.934 |
| FACDICGAYFTQKGNLLRHIKL | -0.553 |
| FWCDICGACFTQKGNLLRHIKL | -0.0705 |
| FRCEICGHFFTQKGNLLRHIKL | -0.484 |
| FMCPVCGAPFTQKGNLLRHIKL | 0.492 |
| FNCEICGHNFTQKGNLLRHIKL | -1.44 |
| FQCEVCGASFTQKGNLLRHIKL | -1.5 |
| FFCNQCGHCFTQKGNLLRHIKL | 0.378 |
| FRCDICGAVFTQKGNLLRHIKL | -0.123 |
| FKCDVCGAYFTQKGNLLRHIKL | -0.82 |
| FSCEICGATFTQKGNLLRHIKL | -0.991 |
| FKCNQCGRKFTQKGNLLRHIKL | -2.33 |
| FLCEICGAIFTQKGNLLRHIKL | -0.119 |
| FMCSVCGHVFTQKGNLLRHIKL | -0.158 |
| FHCPQCGACFTQKGNLLRHIKL | 0.0405 |
| FDCPQCGALFTQKGNLLRHIKL | -0.132 |
